Assay results reported in the supplement of paper PMC7826260.
This is one part of the list. Cleavage of a single-stranded DNA pool by Rep nickase domains was read by sequencing (1 h at 37 °C, 3 µM enzyme); the outer parts of the 90-letter strands are left off. A value is the log2 ratio of uncut reads to the pool without enzyme; strong cutting gives strongly negative numbers. There is no active / inactive call. The scaling is to total reads; values above 0 arise when much of the pool is cut.

What follows are sequences tested on T1, Rep nickase domain of tomato yellow leaf curl virus (assay: uncleaved DNA left, log2 of reads against the no-enzyme library (log2 ratio); higher = less cleavage (more negative = more Rep cleavage of the k-mer); sequences stand for … in CTCGTCCG…ACCGGAGA).
T1 sequence (residues 1-136 of Rep, tag left off): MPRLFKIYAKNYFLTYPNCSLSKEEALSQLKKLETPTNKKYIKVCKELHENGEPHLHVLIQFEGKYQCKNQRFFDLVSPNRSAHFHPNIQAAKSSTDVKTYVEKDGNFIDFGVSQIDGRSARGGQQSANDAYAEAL
Description: (§1)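 A pool of 90-nt single-stranded DNAs with seven random bases just before the constant AC of the nick site (name = the seven bases) was cut by 3 µM recombinant His6-SUMO-tagged Rep nickase domain (300 nM DNA, 50 mM HEPES pH 8.0, 50 mM NaCl, 1 mM MnCl2, 1 h, 37 °C, three replicates). Uncut DNA was amplified and sequenced.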

Row | Sequence | uncleaved DNA left (log2)
1 | AGGCTCC | -0.0117
2 | TCTTCCG | -0.13
3 | CGAGAAC | 0.000765
4 | TCGAGGC | 0.0119
5 | GTGAAAT | 0.233
6 | TTAGCAT | -0.0106
7 | GTTGCGC | 0.0146
8 | ACCTGAT | 0.0961
9 | CGTTGGG | 0.0619
10 | TTAATTT | -0.0431
11 | TCCCCCC | -0.192
12 | AGCATTG | -0.0613
13 | TTTCGAA | -0.0381
14 | ATATGGG | 0.0286
15 | AATAGTC | 0.00654
16 | CTGGTTG | 0.0755
17 | TCTTCTT | -0.0231
18 | CATCGCA | 0.0792
19 | CGTTAAC | -0.0162
20 | TCTGAAT | 0.156

Row | Sequence | uncleaved DNA left (log2)
21 | ATAACTC | -0.0744
22 | TCATCCT | -0.0792
23 | GACCCGG | -0.16
24 | TGAGGAA | -0.0933
25 | CCCGCGG | -0.221
26 | CGAGGAG | -0.114
27 | AGAGAAA | -0.0868
28 | GGCCAGG | 0.0467
29 | TTCAAGC | -0.136
30 | CAAGACT | -0.257
31 | GCTGCGC | -0.00353
32 | ATTGGGG | 0.0986
33 | AGAAGTG | 0.0447
34 | TCCACTT | -0.0221
35 | AGACCCC | 0.0314
36 | ATAGAGA | 0.0631
37 | ACTGATG | 0.157
38 | AACGTTT | -0.0539
39 | GGGTCTC | 0.0773
40 | CTTCGTG | 0.00362

What follows are sequences tested on T2, Rep nickase domain of wheat dwarf virus in the same assay as above.
T2 sequence (residues 1-137 of Rep, tag left off): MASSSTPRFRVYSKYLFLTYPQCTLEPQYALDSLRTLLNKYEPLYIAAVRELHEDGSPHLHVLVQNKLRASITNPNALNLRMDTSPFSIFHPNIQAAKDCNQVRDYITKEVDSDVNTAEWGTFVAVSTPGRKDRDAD
Description: as §1

Row | Sequence | uncleaved DNA left (log2)
41 | AGGCTCC | 0.00055
42 | TCTTCCG | -0.188
43 | CGAGAAC | 0.00622
44 | TCGAGGC | -0.126
45 | GTGAAAT | 0.262
46 | TTAGCAT | 0.0234
47 | GTTGCGC | -0.156
48 | ACCTGAT | 0.105
49 | CGTTGGG | -0.152
50 | TTAATTT | -0.279
51 | TCCCCCC | -0.123
52 | AGCATTG | -0.0438
53 | TTTCGAA | -0.0195
54 | ATATGGG | -0.0992
55 | AATAGTC | -0.00327
56 | CTGGTTG | -0.105
57 | TCTTCTT | -0.0209
58 | CATCGCA | -0.102
59 | CGTTAAC | -0.0513
60 | TCTGAAT | 0.112

Row | Sequence | uncleaved DNA left (log2)
61 | ATAACTC | -0.0712
62 | TCATCCT | -0.113
63 | GACCCGG | -0.0897
64 | TGAGGAA | -0.0282
65 | CCCGCGG | 0.0938
66 | CGAGGAG | -0.0598
67 | AGAGAAA | -0.0619
68 | GGCCAGG | 0.179
69 | TTCAAGC | -0.0537
70 | CAAGACT | -0.116
71 | GCTGCGC | -0.0553
72 | ATTGGGG | 0.135
73 | AGAAGTG | 0.149
74 | TCCACTT | -0.201
75 | AGACCCC | 0.193
76 | ATAGAGA | 0.147
77 | ACTGATG | -0.0158
78 | AACGTTT | -0.102
79 | GGGTCTC | 0.153
80 | CTTCGTG | 0.0122
